Article PMC3477299 (ACS chemical biology, 2012)

Target: Human Hsp70 (HSPA1A), as used in the ELISA-like assays (human, UniProt P0DMV8)
Assay: ELISA

UniProt P0DMV8, sequence (P0DMV8 whole entry): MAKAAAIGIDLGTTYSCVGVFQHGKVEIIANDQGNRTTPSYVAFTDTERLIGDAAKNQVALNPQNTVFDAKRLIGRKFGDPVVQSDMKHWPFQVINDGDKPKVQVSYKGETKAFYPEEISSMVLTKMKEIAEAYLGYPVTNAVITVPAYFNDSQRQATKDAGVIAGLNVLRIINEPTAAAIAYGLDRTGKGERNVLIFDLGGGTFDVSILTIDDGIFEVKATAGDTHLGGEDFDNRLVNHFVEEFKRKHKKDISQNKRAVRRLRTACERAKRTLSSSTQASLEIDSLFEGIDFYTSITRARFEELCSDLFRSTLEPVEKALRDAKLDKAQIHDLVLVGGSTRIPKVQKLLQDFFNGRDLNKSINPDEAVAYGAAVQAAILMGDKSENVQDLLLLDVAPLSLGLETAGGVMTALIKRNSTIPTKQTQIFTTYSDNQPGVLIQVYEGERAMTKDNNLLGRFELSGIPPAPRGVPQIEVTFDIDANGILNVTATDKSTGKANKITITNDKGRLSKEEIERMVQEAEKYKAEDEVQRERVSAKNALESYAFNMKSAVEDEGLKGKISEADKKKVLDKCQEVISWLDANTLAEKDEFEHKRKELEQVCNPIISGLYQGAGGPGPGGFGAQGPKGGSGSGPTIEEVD

Kd: 2900 ± 200 nM
B1: N-terminal His-tagged Human 4RON tau (natural protein)
chain: not shown
